# Source: the supplement of paper PMC8728848
# The other results are listed elsewhere or left out.
# Legend:
# Experiment in all cases: glycan array binding signal (z-score within array); higher = stronger binding
# Settings in all cases: glycan notation: IUPAC condensed, linker removed
# [1] = molecular target: Fuc(a1-2)Gal(b1-4)[Fuc(a1-3)]GlcNAc
# Procedure, shortened: (§1)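 The binding signal is a Z-score computed within each array and averaged over linkers. Arrays of the same protein sequence at different concentrations or buffers were also averaged together. Data originate from 3228 arrays in the Consortium for Functional Glycomics database, kept only where the protein sequence was available.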
# [2] = molecular target: Fuc(a1-2)Gal(b1-4)[Fuc(a1-3)]GlcNAc(b1-2)Man(a1-3)[Fuc(a1-2)Gal(b1-4)[Fuc(a1-3)]GlcNAc(b1-2)Man(a1-6)]Man(b1-4)GlcNAc(b1-4)[Fuc(a1-6)]GlcNAc
# Procedure, shortened: as §1
# [3] = molecular target: Fuc(a1-2)Gal(b1-4)[Fuc(a1-3)]GlcNAc(b1-2)[Fuc(a1-2)Gal(b1-4)[Fuc(a1-3)]GlcNAc(b1-4)]Man(a1-3)[Fuc(a1-2)Gal(b1-4)[Fuc(a1-3)]GlcNAc(b1-2)Man(a1-6)]Man(b1-4)GlcNAc(b1-4)GlcNAc
# Procedure, shortened: as §1
# [4] = molecular target: Fuc(a1-2)Gal(b1-4)[Fuc(a1-3)]GlcNAc(b1-3)Gal(b1-4)[Fuc(a1-3)]GlcNAc
# Procedure, shortened: as §1
# [5] = molecular target: Fuc(a1-2)Gal(b1-4)[Fuc(a1-3)]GlcNAc(b1-3)Gal(b1-4)[Fuc(a1-3)]GlcNAc(b1-3)Gal(b1-4)[Fuc(a1-3)]GlcNAc
# Procedure, shortened: as §1
# [6] = molecular target: Fuc(a1-2)Gal(b1-4)[Fuc(a1-3)]GlcNAc(b1-3)GalNAc
# Procedure, shortened: as §1
# [7] = molecular target: Fuc(a1-2)Gal(b1-4)[Fuc(a1-3)]GlcNAc(b1-3)[Neu5Ac(a2-6)Gal(b1-4)GlcNAc(b1-6)]Gal(b1-4)Glc
# Procedure, shortened: as §1
# [8] = molecular target: Fuc(a1-2)Gal3S(b1-4)GlcNAc
# Procedure, shortened: as §1
# [9] = molecular target: Fuc(a1-2)Gal6S(b1-3)GlcNAc
# Procedure, shortened: as §1
# [10] = molecular target: Fuc(a1-2)Gal6S(b1-3)GlcNAc6S
# Procedure, shortened: as §1
# Fuc(a1-2)Gal6S(b1-4)Glc = molecular target: Fuc(a1-2)Gal6S(b1-4)Glc
# Procedure, shortened: as §1
# [11] = molecular target: Fuc(a1-2)Gal6S(b1-4)Glc6S
# Procedure, shortened: as §1
# [12] = molecular target: Fuc(a1-2)Gal6S(b1-4)GlcNAc
# Procedure, shortened: as §1
# Fuc(a1-2)GlcNAc = molecular target: Fuc(a1-2)GlcNAc
# Procedure, shortened: as §1
# Fuc(a1-2)[Gal(a1-3)]Gal = molecular target: Fuc(a1-2)[Gal(a1-3)]Gal
# Procedure, shortened: as §1
# [13] = molecular target: Fuc(a1-2)[Gal(a1-3)]Gal(b1-3)GalNAc
# Procedure, shortened: as §1
# [14] = molecular target: Fuc(a1-2)[Gal(a1-3)]Gal(b1-3)GalNAc(b1-3)Gal(a1-4)Gal(b1-4)Glc
# Procedure, shortened: as §1
# [15] = molecular target: Fuc(a1-2)[Gal(a1-3)]Gal(b1-3)GlcNAc
# Procedure, shortened: as §1
# [16] = molecular target: Fuc(a1-2)[Gal(a1-3)]Gal(b1-3)GlcNAc(b1-2)Man(a1-3)[Fuc(a1-2)[Gal(a1-3)]Gal(b1-3)GlcNAc(b1-2)Man(a1-6)]Man(b1-4)GlcNAc(b1-4)GlcNAc
# Procedure, shortened: as §1
# [17] = molecular target: Fuc(a1-2)[Gal(a1-3)]Gal(b1-3)GlcNAc(b1-2)Man(a1-3)[Fuc(a1-2)[Gal(a1-3)]Gal(b1-3)GlcNAc(b1-2)Man(a1-6)]Man(b1-4)GlcNAc(b1-4)[Fuc(a1-6)]GlcNAc
# Procedure, shortened: as §1
# [18] = molecular target: Fuc(a1-2)[Gal(a1-3)]Gal(b1-3)GlcNAc(b1-3)GalNAc
# Procedure, shortened: as §1
# [19] = molecular target: Fuc(a1-2)[Gal(a1-3)]Gal(b1-3)GlcNAc(b1-6)GalNAc
# Procedure, shortened: as §1
# [20] = molecular target: Fuc(a1-2)[Gal(a1-3)]Gal(b1-4)Glc
# Procedure, shortened: as §1
# [21] = molecular target: Fuc(a1-2)[Gal(a1-3)]Gal(b1-4)GlcNAc
# Procedure, shortened: as §1
# [22] = molecular target: Fuc(a1-2)[Gal(a1-3)]Gal(b1-4)GlcNAc(b1-2)Man
# Procedure, shortened: as §1
# [23] = molecular target: Fuc(a1-2)[Gal(a1-3)]Gal(b1-4)GlcNAc(b1-2)Man(a1-3)[Fuc(a1-2)[Gal(a1-3)]Gal(b1-4)GlcNAc(b1-2)Man(a1-6)]Man(b1-4)GlcNAc(b1-4)GlcNAc
# Procedure, shortened: as §1
# [24] = molecular target: Fuc(a1-2)[Gal(a1-3)]Gal(b1-4)GlcNAc(b1-2)Man(a1-3)[Fuc(a1-2)[Gal(a1-3)]Gal(b1-4)GlcNAc(b1-2)Man(a1-6)]Man(b1-4)GlcNAc(b1-4)[Fuc(a1-6)]GlcNAc
# Procedure, shortened: as §1
# [25] = molecular target: Fuc(a1-2)[Gal(a1-3)]Gal(b1-4)GlcNAc(b1-3)GalNAc
# Procedure, shortened: as §1
# [26] = molecular target: Fuc(a1-2)[Gal(a1-3)]Gal(b1-4)GlcNAc(b1-6)GalNAc
# Procedure, shortened: as §1
# [27] = molecular target: Fuc(a1-2)[Gal(a1-3)]Gal(b1-4)[Fuc(a1-3)]Glc
# Procedure, shortened: as §1
# [28] = molecular target: Fuc(a1-2)[Gal(a1-3)]Gal(b1-4)[Fuc(a1-3)]GlcNAc
# Procedure, shortened: as §1
# [29] = molecular target: Fuc(a1-2)[Gal(a1-3)]Gal(b1-4)[Fuc(a1-3)]GlcNAc(b1-3)GalNAc
# Procedure, shortened: as §1
# [30] = molecular target: Fuc(a1-2)[Gal(a1-4)]Gal(b1-4)GlcNAc
# Procedure, shortened: as §1
# [31] = molecular target: Fuc(a1-2)[GalNAc(a1-3)]Gal
# Procedure, shortened: as §1
# [32] = molecular target: Fuc(a1-2)[GalNAc(a1-3)]Gal(b1-3)GalNAc(a1-3)[Fuc(a1-2)]Gal(b1-4)GlcNAc
# Procedure, shortened: as §1
# [33] = molecular target: Fuc(a1-2)[GalNAc(a1-3)]Gal(b1-3)GalNAc(b1-3)Gal(a1-4)Gal(b1-4)Glc
# Procedure, shortened: as §1
# [34] = molecular target: Fuc(a1-2)[GalNAc(a1-3)]Gal(b1-3)GlcNAc
# Procedure, shortened: as §1
# [35] = molecular target: Fuc(a1-2)[GalNAc(a1-3)]Gal(b1-3)GlcNAc(b1-2)Man(a1-3)[Fuc(a1-2)[GalNAc(a1-3)]Gal(b1-3)GlcNAc(b1-2)Man(a1-6)]Man(b1-4)GlcNAc(b1-4)GlcNAc
# Procedure, shortened: as §1
binder,measurement,setting,value
Gal 8 (Homo sapiens) (protein) MLSLNNLQNIIYNPVIPYVGTIPDQLDPGTLIVICGHVPSDADRFQVDLQNGSSVKPRADVAFHFNPRFKRAGCIVCNTLINEKWGREEITYDTPFKREKSFEIVIMVLKDKFQVAVNGKHTLLYGHRIGPEKIDTLGIYGKVNIHSIGFSFSSDLQSTQASSLELTEISRENVPKSGTPQLQTVSPSWDLQGHGSETFCSVLWTRVFLEIAFCRPIGLTVASFQSLPFAARLNTPMGPGRTVVVKGEVNANAKSFNVDLLAGKSKDIALHLNPRLNIKAFVRNSFLQESWGEEERNITSFPFSPGMYFEMIIYCDVREFKVAVNGVHSLEYKHRFKELSSIDTLEINGDIHLLEVRSW,glycan array binding signal (z-score),[1],-0.387
same,glycan array binding signal (z-score),[2],-0.354
same,glycan array binding signal (z-score),[3],-0.355
same,glycan array binding signal (z-score),[4],-0.339
same,glycan array binding signal (z-score),[5],-0.38
same,glycan array binding signal (z-score),[6],-0.354
same,glycan array binding signal (z-score),[7],-0.356
same,glycan array binding signal (z-score),[8],-0.354
same,glycan array binding signal (z-score),[9],-0.353
same,glycan array binding signal (z-score),[10],-0.353
same,glycan array binding signal (z-score),Fuc(a1-2)Gal6S(b1-4)Glc,-0.333
same,glycan array binding signal (z-score),[11],-0.322
same,glycan array binding signal (z-score),[12],-0.363
same,glycan array binding signal (z-score),Fuc(a1-2)GlcNAc,-0.751
same,glycan array binding signal (z-score),Fuc(a1-2)[Gal(a1-3)]Gal,-0.354
same,glycan array binding signal (z-score),[13],-0.261
same,glycan array binding signal (z-score),[14],-0.297
same,glycan array binding signal (z-score),[15],1.79
same,glycan array binding signal (z-score),[16],0.879
same,glycan array binding signal (z-score),[17],0.461
same,glycan array binding signal (z-score),[18],0.029
same,glycan array binding signal (z-score),[19],0.407
same,glycan array binding signal (z-score),[20],4.4
same,glycan array binding signal (z-score),[21],2.59
same,glycan array binding signal (z-score),[22],0.115
same,glycan array binding signal (z-score),[23],4.31
same,glycan array binding signal (z-score),[24],2.46
same,glycan array binding signal (z-score),[25],0.006
same,glycan array binding signal (z-score),[26],-0.355
same,glycan array binding signal (z-score),[27],-0.354
same,glycan array binding signal (z-score),[28],-0.374
same,glycan array binding signal (z-score),[29],-0.356
same,glycan array binding signal (z-score),[30],-0.385
same,glycan array binding signal (z-score),[31],-0.371
same,glycan array binding signal (z-score),[32],1.72
same,glycan array binding signal (z-score),[33],-0.211
same,glycan array binding signal (z-score),[34],1.81
same,glycan array binding signal (z-score),[35],2.32
